# Measurements taken from PubChem BioAssay AID504466 (National Center for Advancing Translational Sciences (NCATS), 2011).
# Hit rate of the full screen: of about 330,000 compounds, about 4,200 (1.3%) were called active. This list was built around the results that the source calls inconclusive (neither active nor inactive); the mix of calls is not that of the screen. The call rests on the fitted dose curve; in most records, active means well fitted activation curve with a large enough effect; inconclusive means small, poorly fitted or top-dose-only effect; inactive means no such curve, though single readings can be large or run the other way. Potencies of inconclusive entries are doubtful fits and often do not repeat.
# Test: qHTS screen for small molecules that induce genotoxicity in human embryonic kidney (HEK293T) cells expressing luciferase-tagged ELG1; further: nearly all actives have a fitted effect of over 60% in size; on activity change, positive = activation: % of control where 0% means no effect
# Conditions: HEK293T ELG1-luciferase reporter, luminescence, 16 h; series mostly up to 46 µM; activity change, positive = activation: at the top concentration
# How it was run: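 Quantitative HTS format in 1536-well plates. HEK293T ELG1-luciferase reporter cells receive test compound and are incubated 16 hr at 37 °C, 5% CO2; ONE-Glo added, 30 min room temperature, then luminescence read.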
# Potency means the concentration at half of the fitted maximal effect; tags describe the fitted curve by direction and shape.
Structure (SMILES),Potency,"activity change, positive = activation"
COCCOC(=O)c1c(C)oc2ccc(OC(=O)COc3c(F)c(F)c(F)c(F)c3F)cc12,"inconclusive: 32.6 µM [activator, partial curve, poor fit]",
Cc1ccc(OCC(=O)Nc2cc(C)on2)c([N+](=O)[O-])n1,"inconclusive: 20.6 µM [activator, partial curve, poor fit]",
Cc1cccc(C(=O)Oc2ccc(/C=N/NC(=O)Cc3ccc([N+](=O)[O-])cc3)cc2)c1,"inconclusive: 23.1 µM [activator, partial curve, poor fit]",
Cc1ccc2nc(-c3cccc(Br)c3)cc(C(=O)Nn3cnnc3)c2c1,"inconclusive: 16.4 µM [activator, single point]",
O=C(c1ccccn1)c1cc2ccccc2n1S(=O)(=O)c1ccccc1,,inactive: -3.39%
CCc1cc2c(=O)c(-c3cscn3)coc2cc1OC,"inconclusive: 2.31 µM [activator, full curve]",
O=C1c2ccccc2NC(c2ccc(-c3cccs3)o2)N1O (stereo unspecified),"inconclusive: 2.06 µM [activator, full curve, poor fit]",
CCCCCc1nnc(NC(=O)C2=COCCO2)s1,"inconclusive: 10.3 µM [activator, partial curve]",
COC(CNC(=O)c1cccnc1)OC,,inactive: 0.454%
O=C(Nc1ccccc1Cl)c1ccc2nccnc2c1,,inactive: 2.31%
O=C(Cn1ncn2nc(-c3ccccc3)cc2c1=O)NCc1ccccn1,,inactive: 1.64%
COC(=O)c1ccccc1NC(=O)Cn1c(-c2nonc2N)nc2ccccc21,"inconclusive: 8.2 µM [activator, partial curve, poor fit]",
O=C(COc1ccc2ccccc2c1Br)NC(=S)Nc1cccc(CO)c1,active: 20.6 µM,
O=C(CCc1nc2ccccc2s1)NCc1ccccc1F,"inconclusive: 29.1 µM [activator, single point]",
O=C(NCc1ccccn1)c1cc2ccccc2oc1=O,active: 14.6 µM,
CC1=Nc2nc(N3CCCCC3)c(C#N)c3c4c(nc(c23)N1)N(c1ccc(C(C)C)cc1)C(=O)C4,"inconclusive: 20.6 µM [activator, partial curve, poor fit]",
O=C(COc1ccc(Br)cc1Cl)NC(=S)Nc1ccccn1,active: 1.64 µM,
Cc1cc(=O)[nH]c(SCC(=O)Nc2ccc3c(c2)OCCO3)n1,,inactive: -3.24%
N#CC1=C2C=Cc3ccccc3N2CCCC1=O,"inconclusive: 9.2 µM [activator, partial curve]",
CCOC(=O)c1ccc(NC(=O)CCc2nc(-c3ccc(C)cc3)no2)cc1,active: 23.1 µM,
CC(/C=C1\SC(=S)N(CCCC(=O)Nc2ccc(C(=O)O)c(O)c2)C1=O)=C\c1ccccc1,"inconclusive: 14.6 µM [activator, partial curve, poor fit]",
O=C(Oc1ccc(/C=N/NC(=O)c2ccccc2F)cc1)c1ccccc1,"inconclusive: 16.4 µM [activator, single point]",
COc1ccc(/C(C)=N/Nc2ccc(F)cc2F)c(O)c1,"inconclusive: 18.3 µM [activator, partial curve, poor fit]",
COc1ccc(-c2csc(N)n2)cc1,"inconclusive: 16.4 µM [activator, partial curve, poor fit]",

Structure (SMILES),Potency,"activity change, positive = activation"
CN1CCN(C(=S)c2ccc(-c3cccc(Cl)c3Cl)o2)CC1,"inconclusive: 14.6 µM [activator, partial curve]",
Oc1c(C=NCc2ccccc2)sc2ccccc12,"inconclusive: 14.6 µM [activator, partial curve]",
COc1ccc(NC(=O)CSc2nnc(-c3cccs3)n2-c2ccccc2)cc1,"inconclusive: 32.6 µM [activator, partial curve, poor fit]",
COc1ccc(OC)c(NC(=O)CN(c2ccc(C(C)C)cc2)S(=O)(=O)c2c(C)noc2C)c1,,inactive: -11.2%
Cc1ccc2c(c1)NC(=O)C(CC(=O)Nc1ccc(Br)c(C)c1)O2 (stereo unspecified),,inactive: 6.28%
Fc1ccc(-c2ccc(CNCc3ccccn3)o2)cc1,"inconclusive: 20.6 µM [activator, partial curve, poor fit]",
Cc1ccc(C(=O)CSc2nnc3n2CCCCC3)s1,"inconclusive: 13 µM [activator, partial curve, poor fit]",
O=C(CN1C(=O)NC(c2ccccc2)(c2ccccc2)C1=O)NCCNCCO,,inactive: 0.128%
CCC(C)c1ccc(NC(=O)c2cccnc2)cc1 (stereo unspecified),"inconclusive: 5.8 µM [activator, partial curve]",
CCOc1ccccc1NC(=O)C1=C(C)NC(=S)NC1c1cccs1 (stereo unspecified),,inactive: -2.92%
OC(COc1ccc2cc(Br)ccc2c1)CN1CCCC1 (stereo unspecified),"inconclusive: 5.8 µM [activator, single point]",
CC(=O)Oc1ccc(-c2csc(Nc3cccc(C)n3)n2)cc1,active: 13 µM,
c1ccc(-c2noc(-c3cccc4ccccc34)n2)cc1,"inconclusive: 5.8 µM [activator, partial curve]",
CC(=O)N1N=C(c2ccc(C)cc2)OC1c1ccc(C(C)C)cc1 (stereo unspecified),"inconclusive: 9.2 µM [activator, partial curve, poor fit]",
CCOC(=O)N1CCN(C(=O)CN2C(=O)c3ccccc3S2(=O)=O)CC1,"inconclusive: 12.6 µM [activator, partial curve, poor fit]",
COc1cccc(Nc2nc(-c3sc(N)nc3C)cs2)c1,"inconclusive: 16.4 µM [activator, partial curve]",
COc1ccc(-c2nc3ccccc3n2OC(C)C(=O)O)cc1 (stereo unspecified),"inconclusive: 20.6 µM [activator, partial curve, poor fit]",
C=C(C)CNC(=O)CCc1nnc(Cc2cccc(C(F)(F)F)c2)o1,active: 18.3 µM,
N#C/C(=C\c1ccc(OCc2ccc(Br)cc2)cc1)C(=O)Nc1cccc(C(=O)O)c1,"inconclusive: 18.3 µM [activator, partial curve]",
CCCc1ccc(-c2cc(C(=O)N/N=C/c3ccc([N+](=O)[O-])o3)c3ccccc3n2)cc1,"inconclusive: 2.31 µM [activator, partial curve]",
CCCCN(C(=O)C1CC(=O)N(c2ccc(C)cc2)C1)c1c(N)n(CCC)c(=O)[nH]c1=O (stereo unspecified),,inactive: 0.992%
O=C(N/N=C/c1cccs1)c1ccccn1,"inconclusive: 13 µM [activator, partial curve]",
Cc1cccc(NC(=S)NNC(=O)c2sccc2C)c1,"inconclusive: 18.4 µM [activator, partial curve]",
O=C(CSCC(=O)OCC(=O)c1ccc(Br)cc1)Nc1ccc(Br)cc1,,inactive: 2.33%

Structure (SMILES),Potency,"activity change, positive = activation"
Cc1cccc(C(=O)NCCc2ccccc2)c1,active: 4.61 µM,
Cc1noc(C)c1C(=O)Nc1ccc2ccccc2c1,"inconclusive: 25.9 µM [activator, partial curve, poor fit]",
CN(C)c1ccc(N2CN=C3SCC(=O)N3C2)cc1,"inconclusive: 2.59 µM [activator, full curve]",
CCn1cc([N+](=O)[O-])c(C(=O)Nc2ccc3c(c2)OCCO3)n1,"inconclusive: 16.4 µM [activator, partial curve]",
O=C(COc1cccc(Br)c1)N/N=C1\CCSC1,,inactive: 1.06%
Cc1ccc(NC(=O)NCCCN2CCCC2=O)cc1Cl,"inconclusive: 18.3 µM [activator, partial curve, poor fit]",
O=C(O)c1ccc(Nc2nc3c(s2)CCCC3)cc1,"inconclusive: 0.206 µM [activator, partial curve]",
O=C(CC(Nc1ccc(Cl)cc1)C(=O)O)c1ccccc1 (stereo unspecified),active: 16.4 µM,
COc1ccc(NC(=O)c2ccc3c(c2)OCO3)cc1Cl,"inconclusive: 3.26 µM [activator, full curve]",
Cc1ccc(/C=N/Nc2cccc(C(=O)O)c2)s1,"inconclusive: 0.13 µM [activator, full curve]",
O=C(NC(=S)Nc1cccnc1)c1ccccc1,"inconclusive: 18.3 µM [activator, partial curve, poor fit]",
CCc1ccc2nc(SCC(=O)Nc3nnc(C)s3)c(C)cc2c1,"inconclusive: 29.1 µM [activator, partial curve, poor fit]",
N#Cc1ccc(/C=C/C(=O)c2ccccc2)cc1,"inconclusive: 25.9 µM [activator, single point]",
O=C(/C=C/c1ccccc1)NCCc1ccccc1,active: 20.6 µM,
COc1ccc2c(C(=O)NCc3ccc4c(c3)OCO4)c(-c3ccc(S(C)(=O)=O)cc3)sc2c1,,inactive: 1.1%
CCN1C(=O)/C(=C\C(=O)c2cccs2)c2cc(Br)ccc21,"inconclusive: 23.1 µM [activator, partial curve, poor fit]",
O=c1c(-c2ccc(O)cc2)coc2cc(OC3OC(CO)C(O)C(O)C3O)cc(O)c12 (stereo unspecified),active: 14.6 µM,
Clc1ccccc1OCCn1nnc2ccccc21,"inconclusive: 10.3 µM [activator, partial curve]",
Cc1csc(SCc2nnc(-c3ccccc3Br)o2)n1,"inconclusive: 6.51 µM [activator, partial curve]",
O=C(NC(Cc1ccccc1)C(=O)O)NC12CC3CC(CC(C3)C1)C2 (stereo unspecified),,inactive: 0.595%
Cc1nc(C)c(-c2ccc(SCC(=O)Nc3ccc(F)cc3F)nn2)s1,,inactive: -6.67%
Cc1cc(NCc2ccccc2)n2ncc(-c3ccccc3)c2n1,active: 4.11 µM,
COc1ccc(C(=O)Nc2nnc(SCC(=O)Nc3ccc(NC(C)=O)cc3)s2)c(OC)c1,"inconclusive: 0.326 µM [activator, partial curve, poor fit]",
